SMILES strings stand for the structures. In all, about 52,000 compounds went through this assay and about 4,300 (8.3%) were called active. Cut-off read from the data, not from the text of the source: active = survival mostly below about 52% (no sharp cut-off); inactive = mostly above about 56%. The list shows a part of the results.

The assay concerns DeltatarO mutant. The assay is described as follows: growth inhibition of S. aureus wild type versus tarO mutant, primary screen, teichoic acid synthesis inhibitors, RN4220, OD600 (AID 463173). As to conditions: OD600, 18 h, hits give low values, screened at 18.75 µg/mL (by protocol).
For the molecule `COc1cccc2cc(S(=O)(=O)c3ccc(F)c(C)c3)c(=O)oc12`, the survival is inactive: 90%.

For `Cc1nn(-c2ccccc2)c2nc(C3CC3)cc(C(=O)Nc3ccc(F)cc3)c12`, the survival was inactive: 105%.

In the case of `C=CCN1C(=O)C(=O)/C(=C(\O)c2ccccc2)C1c1ccccc1` (centres undefined), the survival is inactive: 115%.

`O=C(CCn1cnc2onc(-c3ccc(F)cc3)c2c1=O)Nc1ccc(F)c(Cl)c1`: the survival was inactive: 94%.

Regarding `CCc1c(C)sc2c1CCN(Cc1ccccc1)C2c1ccccc1` (centres undefined), the survival is inactive: 85%.

For `O=C(Nc1ccc(OCc2cc(=O)n3c4c(sc3n2)CCCC4)cc1)c1cccc(F)c1`, the survival was inactive: 65%.

In the case of `Cc1ccc(NC(=O)CN(C)S(=O)(=O)c2ccc3c(c2)n(C)c(=O)c(=O)n3C)cc1F`, the survival is inactive: 90%.

On to `Cc1cn2c(=O)cc(COc3cccc(NC(=O)c4ccc(C(C)(C)C)cc4)c3)nc2s1`, for which the survival is inactive: 62%.

In the case of `CCOC(=O)C1CCN(CC(=O)Nc2cc(C)c3c(=O)oc4ccccc4c3n2)CC1`, the survival is inactive: 128%.

For `O=C(Cn1nnc(-c2ccccc2)n1)N1CCCCC1`, the survival is inactive: 73%.

Take `C=CCc1ccccc1OCCSc1nc(-c2cccs2)nc2cc(=O)[nH]n12`: the survival was inactive: 87%.

`CCOc1ccc(NC(=O)c2c(C)nn(-c3ccc(F)cc3)c2-n2cccc2)cc1`: the survival is inactive: 91%.

Consider `COc1cccc(CNC(=O)CN2C(=O)CCc3cc(S(=O)(=O)N4CCOCC4)ccc32)c1`, for which the survival was inactive: 73%.

For `COc1ccc(OC)c2sc(N(Cc3cccnc3)C(C)=O)nc12`, the survival is inactive: 85%.

With `CN1CCN(C(=O)C2CCN(S(C)(=O)=O)CC2)CC1`, the survival was inactive: 83%.

As for `O=C(NC1CCCC1)c1ccc2c(=O)n(Cc3ccccc3)c(SCc3ccc([N+](=O)[O-])cc3)nc2c1`, the survival is inactive: 69%.

In the case of `CCc1ccc(CNC(=O)Cn2ccc3cc(S(=O)(=O)N4CCCCCC4)ccc32)cc1`, the survival was inactive: 130%.

Turning to `CC(C)(C)C(=O)Nc1cccc(C(=O)O)c1`, the survival was inactive: 82%.

As to `CCOc1ccc(-c2nnc(SCC(=O)NC3CCCCC3)nc2-c2ccc(OCC)cc2)cc1`, the survival was inactive: 107%.

On to `COc1ccc2c(c1)Cc1sc(NC(=O)c3ccccc3C)nc1-2`, for which the survival is inactive: 102%.

For the molecule `Cc1ccc(C)c(N2CCN(c3nc4ccccc4c(=O)n3-c3ccc(Cl)cc3)CC2)c1`, the survival was inactive: 63%.

Turning to `COc1cccc(CNC(=O)c2ccc(-c3nc(CS(=O)c4ccccc4)c(C)o3)cc2)c1` (centres undefined), the survival was inactive: 92%.

Regarding `COCCN(Cc1cc2c(C)cc(C)cc2nc1Cl)C(=O)c1ccco1`, the survival is inactive: 92%.

For the molecule `COc1ccc(NC(=O)Cn2cnc3ccc(S(=O)(=O)N4CCC(C)CC4)cc3c2=O)c(OC)c1`, the survival is inactive: 73%.
